This note sets out measurements from the supplement of paper PMC10126150.

Values marked as one replicate rest on one cluster of the flow cell; about a third of the high ones do not repeat.

The data set relates to ATP. Description: switch fluorescence ratio, 500 uM ATP over buffer (Cy3 cluster intensity, sum of 5 cycles each) (fold (ratio)); higher = stronger signal-on switching upon ATP binding; sequences stand for … in TCGTCGGCAGCGTCAGATGTGTATAAGAGACAGTTTTTTTTTTTTTTTTTTTTTTTTT…TC. The settings on record: aptamer strand: ATP DNA aptamer (quencher-CACCTGGGGGAGTATTGCGGAGGAAGG + anchor), 100 nM annealed; ATP concentration: 500 uM; one replicate. The procedure, abridged: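 Cy3-labelled switching-strand clusters on a modified Illumina MiSeq flow-cell were annealed to 100 nM quencher-labelled ATP aptamer and imaged first in selection buffer, then after 15 min with 500 uM ATP at 22 °C. NaOH stripping and re-annealing separated each of five buffer/ATP cycles, and clusters outside 100-1000 RFU were excluded. The fluorescence ratio sums target-cycle Cy3 intensity over buffer-cycle Cy3 intensity per cluster and averages it per switch-domain sequence.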
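Also: ATP exposure 15 min at 22 °C before imaging.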

Consider ACGCTCGGGA, for which the switch fluorescence ratio was found to be 0.941. CGGCCAACAG: the switch fluorescence ratio was determined as 1.04. Regarding TCGCTGAAGA, the switch fluorescence ratio amounted to 0.995. Regarding AATACGGGCA, the switch fluorescence ratio turned out to be 1.06. Turning to TTACATCAGG, the switch fluorescence ratio was found to be 1.09. Then AGGAGGCCT, with 1; and CGAGAGTGTA, with 1.02; and ATACTGTGCA, with 0.996. Regarding AAGTGGCTCG, the switch fluorescence ratio was determined as 0.998.

With GTTTGGGATC, the switch fluorescence ratio is 1.03. Then TTGCTACATG, with 0.968; and AGGTATACGC, with 1.01; and CAGGTGTACA, with 1.04. As for CGGGGCTTGA, the switch fluorescence ratio was found to be 1. The figure for TAGTAAGTCG is 1.03; for ACATCCGCAT it is 2.05.

For CGTTCTTTTT, the switch fluorescence ratio stood at 0.983. Then AGGGTGCTGG, with 0.977; and GGGGTGCATA, with 0.985; and GTAAGTGAGG, with 1.01. Then GAAGTTGGG, with 1.01. The figure for TAAAGCAAGG is 1.09. Turning to TGGCCAAAC, the switch fluorescence ratio came to 0.999. For the sequence TGCGCGCACG, the switch fluorescence ratio was found to be 1.01.

For GTGTTGCTAG, the switch fluorescence ratio turned out to be 0.986. As to CGTCTGTTTC, the switch fluorescence ratio worked out at 1.06. Then TTTGTGGCTC, with 1.05; and TTTCTCCCGT, with 0.969; and CGTAGACAGC, with 1.01. Consider CACTATTTTT, for which the switch fluorescence ratio worked out at 0.986.

For TCTGGAAGG, the switch fluorescence ratio turned out to be 0.999. Turning to TCTGCCAACA, the switch fluorescence ratio came to 1.03. Then GCGTTATCCT, with 1.15; and GCGCGTATTA, with 1.01; and TTACGGCGTG, with 1.02. The figure for AAACGCATGG is 1.22. The figure for CCACAGAGAC is 2.23. Turning to AAAGTTAGCA, the switch fluorescence ratio was 1. The figure for GAGACAATCC is 1.17; for TTTGCATAGT it is 1.01; for CATTTTAGAT it is 1. Then CCTTGAATTG, with 1.05; and GTTGGGAAAG, with 1.02. Then CTAAACTATG, with 0.966; and TCGTGACTGG, with 0.993; and TATTAGAATT, with 1.02. For the sequence TGCGTTCATC, the switch fluorescence ratio amounted to 1.03.

On to GCGATAGGCA, for which the switch fluorescence ratio was 1.01. Regarding ACGGCCGGG, the switch fluorescence ratio is 1.01.

For ATACGCTCGC, the switch fluorescence ratio was 1.17. On to GTGGGCTATC, for which the switch fluorescence ratio was determined as 1. The figure for ACCCGGTTAT is 1.03.

For the sequence CCGATGCATG, the switch fluorescence ratio was found to be 2.77. The figure for GGAGGTAACT is 0.903; for CTTCGGACAC it is 2.84. The figure for AATACATGG is 0.921; for ACGGATGGTG it is 1. The figure for ATTACATGGT is 0.996. Consider ATGTATCTGC, for which the switch fluorescence ratio is 0.917. Turning to CCTCTACGGA, the switch fluorescence ratio was found to be 1.16. GGTTTTGCT: the switch fluorescence ratio worked out at 0.975. Then GAAAATCTGG, with 1.02; and GCGATACTTA, with 1.5; and TGAGCGGTTT, with 1.02. ATCTGGGGGC: the switch fluorescence ratio is 1.05.

Consider TATGGTGGCA, for which the switch fluorescence ratio worked out at 1.01. The figure for TAAACCATGA is 1.01. For AGACCGGCAA, the switch fluorescence ratio was 1.23.

Regarding CAACTTGTTC, the switch fluorescence ratio stood at 1.02.

For the sequence TTCAGTGCGG, the switch fluorescence ratio is 1.01. Take ACCTGCTTGA: the switch fluorescence ratio was 1.07. Then GAGCGGGTGT, with 1.03. Then TTATCTAT, with 1.04.

For the sequence CTGTATGGAT, the switch fluorescence ratio was 0.977. The figure for TCTAACTGCT is 0.968; for GACGTTGTGT it is 1; for GGGGGTATAA it is 1.02. TACCATTTTC: the switch fluorescence ratio came to 0.979. Turning to CATACCTTAT, the switch fluorescence ratio is 1.03. The figure for TTCAAGTATA is 1.03; for CAACAAGAAA it is 0.949. Then CTAGAATGTT, with 0.975. As to TATCGACGCC, the switch fluorescence ratio turned out to be 1.58. Then GGCTCCTCAT, with 1.23; and TTACATGCAT, with 1.01; and TTGCTCTGGC, with 0.896. In the case of TTCTATGCTT, the switch fluorescence ratio worked out at 1.03.

AAACTTCGTC: the switch fluorescence ratio is 1.23. The figure for CTAGCGCCAT is 1.12; for TCGGTCTTGT it is 1.01. With ATATCACATG, the switch fluorescence ratio amounted to 1.01. For TATTGAAAAC, the switch fluorescence ratio worked out at 0.999. Then AAACAGTGAG, with 1.01; and TTCACAGATT, with 1.02; and TCGAGGCGCG, with 1.03. In the case of ACAGATTCG, the switch fluorescence ratio worked out at 0.985. CAGACTAGTC: the switch fluorescence ratio is 0.963. For ATTGGAAATA, the switch fluorescence ratio turned out to be 1.01. Then CCATTTACTC, with 1.2; and TCGTACCAGG, with 1.61. Turning to GAAGGAGTAC, the switch fluorescence ratio turned out to be 1.06. For GAAAAACCAC, the switch fluorescence ratio amounted to 1.15. For CAGGTGCGG, the switch fluorescence ratio is 1.14.

In the case of GGGGACTGAC, the switch fluorescence ratio came to 1.18.

In the case of CTGGGGGATT, the switch fluorescence ratio was 0.966. Consider GGTGCGGGG, for which the switch fluorescence ratio was determined as 0.984.

In the case of CGGTCAGCTT, the switch fluorescence ratio turned out to be 0.997. For TCGGGACTGC, the switch fluorescence ratio is 1.05. The figure for GACATTCCGC is 1.62. Then AACTAGGCAA, with 1. The figure for CACGTTCCGG is 1.06; for TTGCGTAGA it is 1.02. Turning to CATTTTAAGG, the switch fluorescence ratio came to 0.974. The figure for GAAGCGTGGT is 0.984; for GTGATCGGAT it is 0.979; for CGTGATCATA it is 1.01. Take TTTGGTGCGA: the switch fluorescence ratio is 0.982.

Consider GGAGAATTGG, for which the switch fluorescence ratio came out at 0.971.

For the sequence AATCCAAGGC, the switch fluorescence ratio turned out to be 1.07. The figure for TTCTCGGCGG is 0.974.
